30 molecules from PubChem BioAssay AID1671189 (National Center for Advancing Translational Sciences (NCATS), 2021) can be followed below.

Screen size: about 1,100 compounds; about 70 (6%) were called active. Inconclusive results (about 22%) are left out. The call rests on the fitted dose curve; in most records, active means well fitted curve in the direction sought with a large enough effect; inconclusive means small, poorly fitted or top-dose-only effect, or another doubt; inactive means no such curve, though single readings can be large or run the other way. The list shows a part of the results.
On the % scale 0 is the no-effect control and ±100 the full control effect.

UniProt P18054, sequence (P18054 whole entry, looked up): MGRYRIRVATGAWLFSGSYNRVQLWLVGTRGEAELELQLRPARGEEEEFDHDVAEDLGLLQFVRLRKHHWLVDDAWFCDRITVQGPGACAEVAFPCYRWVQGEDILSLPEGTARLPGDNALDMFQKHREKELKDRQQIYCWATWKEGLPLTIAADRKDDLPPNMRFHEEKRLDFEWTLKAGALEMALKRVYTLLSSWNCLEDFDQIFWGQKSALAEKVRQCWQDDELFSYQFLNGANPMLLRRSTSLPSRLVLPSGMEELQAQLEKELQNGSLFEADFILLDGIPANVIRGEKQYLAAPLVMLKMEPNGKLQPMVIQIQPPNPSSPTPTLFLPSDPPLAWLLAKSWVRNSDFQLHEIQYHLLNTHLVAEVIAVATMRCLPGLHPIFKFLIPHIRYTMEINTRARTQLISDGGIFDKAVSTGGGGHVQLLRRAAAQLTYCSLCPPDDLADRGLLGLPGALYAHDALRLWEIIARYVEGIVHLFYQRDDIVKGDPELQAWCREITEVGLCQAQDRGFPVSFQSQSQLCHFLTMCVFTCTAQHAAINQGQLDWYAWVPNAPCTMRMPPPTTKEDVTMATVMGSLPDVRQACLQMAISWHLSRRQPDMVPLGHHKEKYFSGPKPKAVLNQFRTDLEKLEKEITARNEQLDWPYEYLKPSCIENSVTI

The experiment deals with Polyunsaturated fatty acid lipoxygenase ALOX12 (Homo sapiens) (UniProt P18054). Put plainly: Confirmatory qHTS assay for inhibitors of human arachidonate 12S-lipoxygenase (ALOX12): Round 2. Conditions: purified human 12-LOX, xylenol orange absorbance; at 125 µM (top of the series) unless noted. The source says:
Assay Provider: Theodore R. Holman Ph.D. University of California, Santa Cruz, California Human lipoxygenase 12hLO is a member of the closely related lipoxygenase family of enzymes which catalyze the site-specific oxidation of arachidonic acid to various hormone precursor molecules and as such is a candidate for drug development in a variety of disease areas, such as cancer and inflammation. Inhibition of 12hLO activity was screened by utilizing arachidonic acid as a substrate. The extent of hydroperoxide product formation was measured by a secondary chromogenic reaction in which xylenol orange (XO, Sigma-Aldrich, cat. number 39,818-7) reacts with the ferric ions produced from the reaction between the hydroperoxide and ferrous ions. The Fe (III)-XO complex is characterized with red-shifted absorbance at 560 nm. A purified preparation of human 12hLO was supplied by Dr. Holman laboratory, University of California, Santa Cruz.
PROTOCOL TABLE SEQUENCE No. (e.g., 1, 2, 3, etc.); […] (e.g., Cells, Incubation, Reagent, etc.); VALUE; DESCRIPTION 1; Enzyme; 3 uL; 150 nM 12hLO enzyme solution dispensed in 1536-well Greiner black, clear bottom plates. 2; Compound; 23 nL; compounds and controls were added. 3; Incubate; 15 min; room temperature. 4; Substrate; 1 uL; 40 uM arachidonic acid (final concentration). 5; Incubate; 30 min; room temperature. 6; Reagent; 4 uL; Fe-XO solution was added to each well. 7; Incubation; 30 min; room temperature 8; Detector; absorbance; Read 1 at 405 nm absorbance using ViewLux (PerkinElmer) CCD imager. 9; Detector; absorbance; Read 2 at 573 nm absorbance using ViewLux (PerkinElmer) CCD imager. NOTES (numbers refer to sequence above) 1; 150 nM 12hLO (final concentration) in buffer solution (25 mM Hepes, 0.01% Triton X-100, pH 7.0) was dispensed in columns 1, 2, 5-48. Column 1 is neutral (100% activity). Buffer only was dispensed in columns 3 and 4 as no enzyme negative controls. The plates were covered with metal lids with gas-exchange holes. 2; Compounds were pin transferred via a Kalypsys Pin Tool (Wako USA) in column 5 - 48. Control compound was transferred in column 2, titration of nordihydroguaiaretic acid (NDGA, Sigma-Aldrich, N5023) with top concentration of 20 mM in DMSO then 1:3 dilution in duplicate. Dilution factor of 23 nL into 4 uL final assay volume. 3; Covered assay plates were incubated for 15 min at room temperature. 4; Substrate was added to start the reaction; 40 uM arachidonic acid (Sigma-Aldrich, St. Louis, MO) was dispensed throughout the plate. 6; Chromogenic detection reagent solution (divalent iron/xylenol orange, Fe-XO) was added to each well: 200 uM xylenol orange, 300 uM ferrous ammonium sulfate prepared freshly in 50 mM sulfuric acid. 8, 9; Two absorbance readouts were obtained at 405 nm and at 573 nm using a ViewLux high-throughput CCD plate imager (PerkinElmer). The 573 to 405 (Read 2 / Read 1) absorbance ratio was used to compute reaction progress.
(In general: In qHTS, concentration-response curves come from the screen itself.)
Regarding `N#Cc1ccc(CN2CCC3(CC2)C(=O)Nc2ccccc23)cc1`, the activity change, negative = inhibition was inactive: -27.2%.

Consider `COc1ccc(C(CN)N2CCCC2)cc1` (stereo not given), for which the activity change, negative = inhibition is inactive: 11.8% [at 233 µM].

With `O=C1Nc2ccccc2C12CCN(Cc1ccc(C(F)(F)F)cc1)CC2`, the activity change, negative = inhibition was inactive: -41.1%.

Turning to `O=C(O)C1=NOC2CN(Cc3cccc(Br)n3)CC12` (stereo not given), the activity change, negative = inhibition is inactive: -4.21%.

On to `CN(C)[C@@H]1C(=O)C(C(N)=O)=C(O)[C@@]2(O)C(=O)C3=C(O)c4c(O)cccc4[C@@](C)(O)[C@H]3C[C@@H]12`, for which the activity change, negative = inhibition is inactive: -4.18%.

As to `O=C1NC2(Cc3ccccc31)CN(CC1CC1)C2`, the activity change, negative = inhibition is inactive: -11.7% [at 233 µM].

With `CC1CN2CCCCC2CN1` (stereo not given), the activity change, negative = inhibition was inactive: -6.4% [at 343 µM].

For `CC1(C)C(C(=O)N2CCC3(CC2)Nc2ccccc2NC3=O)C1(C)C`, the activity change, negative = inhibition is inactive: -10.7% [at 64.5 µM].

Take `Cc1o[nH]c(=O)c1C[C@H](N)C(=O)O`: the activity change, negative = inhibition is inactive: 5.45%.

On to `O=C(Nc1ccc2n(c1=O)C[C@H]1C[C@@H]2CN(Cc2ccc(F)cc2)C1)c1cccs1`, for which the activity change, negative = inhibition is inactive: -9.31% [at 64.5 µM].

For `Cc1nc(-c2ccccc2Br)cc([C@H]2CN3CC[C@H]2C[C@@H]3CNC(=O)c2ccccc2)n1`, the activity change, negative = inhibition is inactive: 2.4% [at 64.5 µM].

For `CCOc1cncc(/C=C/CCNC)c1`, the activity change, negative = inhibition is inactive: -4.88%.

As to `Clc1ccc(N2CCN(CC3[C@H]4CNC[C@@H]34)CC2)nc1` (stereo not given in full), the activity change, negative = inhibition was inactive: -1.21% [at 64.5 µM].

On to `COc1ccc(CC(=O)N2Cc3ccccc3CC3(CCCCN3C)C2)cc1` (stereo not given), for which the activity change, negative = inhibition is inactive: -22.4%.

For the molecule `c1cnc2nc(C3CCNCC3)[nH]c2c1`, the activity change, negative = inhibition is inactive: -3.26% [at 233 µM].

Take `O=C1Nc2ccccc2CN(Cc2ccncc2)C12CCNCC2`: the activity change, negative = inhibition was inactive: -15.2%.

Turning to `CN[C@@H](Cc1c[nH]c2ccccc12)C(=O)O`, the activity change, negative = inhibition is inactive: -2.52%.

As for `CNC(C)c1ccc(Cl)cc1` (stereo not given), the activity change, negative = inhibition is inactive: -21.6% [at 233 µM].

On to `CC(C)C1CN2CCCC2CN1` (stereo not given), for which the activity change, negative = inhibition is inactive: -4.43% [at 233 µM].

Consider `O=C(Cc1ccc(Cl)cc1)N1Cc2ccccc2CC2(CCCN2CC2CCNC2)C1` (stereo not given), for which the activity change, negative = inhibition was inactive: -22.4%.

With `O=[S+]1([O-])NC2(CCN(CC3CCOCC3)C2)COc2ccncc21` (stereo not given), the activity change, negative = inhibition is inactive: 0.957%.

`Cc1ccc(C(=O)N2[C@H]3CC[C@@H]2c2cnc(-c4ccc(F)cc4)nc2C3)cn1`: the activity change, negative = inhibition is inactive: 3.41% [at 64.5 µM].

For `CNC1CCc2ccccc21` (stereo not given), the activity change, negative = inhibition is inactive: -16.9% [at 233 µM].

Consider `CCCCC1CN2CCCC2CN1` (stereo not given), for which the activity change, negative = inhibition was inactive: -7.61% [at 233 µM].

On to `O=C(O)C1=NOC2CN(Cc3ccccc3)CC12` (stereo not given), for which the activity change, negative = inhibition was inactive: -24.7% [at 233 µM].

For the molecule `CN(C)c1ccc(CN2CCC3(CC2)C(=O)Nc2ccccc23)cc1`, the activity change, negative = inhibition was inactive: -23.9%.

As for `CCN1C[C@]2(COC(=O)c3ccccc3N3C(=O)CC(C)C3=O)CC[C@H](OC)[C@@]34C5C[C@@H]6[C@@H](OC)C[C@@](O)(C5[C@H]6OC)[C@](O)([C@@H](OC)C23)[C@@H]14` (stereo not given in full), the activity change, negative = inhibition is inactive: 3.67%.

As to `c1ccc(CC2CN3CCCC3CN2)cc1` (stereo not given), the activity change, negative = inhibition is inactive: 9.21% [at 233 µM].

With `O=C1Nc2ccccc2C12CCN(CC1CCCCC1)CC2`, the activity change, negative = inhibition is inactive: -24.2%.

On to `c1cc2nc(C3CCNCC3)[nH]c2cn1`, for which the activity change, negative = inhibition is inactive: -16.3% [at 233 µM].
